Assay results: PubChem BioAssay AID1347165 (National Center for Advancing Translational Sciences (NCATS), 2019)
Screen size: about 220,000 compounds; about 5,700 (2.6%) were called active. This list was built around the results that the source calls inconclusive (neither active nor inactive); the mix of calls is not that of the screen. Calls come from the whole dose curve; as a rule, active = well fitted inhibition curve with a large enough effect; inconclusive = small, poorly fitted or top-dose-only effect; inactive = no such curve, though single readings can be large or run the other way. Potencies beside an inconclusive call are fits to weak or partial responses and may not hold up.
Note: nearly all actives have a fitted effect of over 70% in size.
Potency is the fitted concentration of half-maximal effect; tags give direction and shape of the fitted curve.
Throughout, for activity change, negative = inhibition: 0% is about no effect.

Each compound was assayed against Lysine-specific demethylase 5B (Homo sapiens) (UniProt Q9UGL1) (assay: Primary screen for KDM5B Histone Demethylases FDH-coupled qHTS). Settings: FDH-coupled NADH fluorescence (FDH is formaldehyde dehydrogenase); activity change, negative = inhibition: at 57.7 µM (top of the series) unless noted.
Chain of UniProt Q9UGL1 (Q9UGL1 whole entry, looked up): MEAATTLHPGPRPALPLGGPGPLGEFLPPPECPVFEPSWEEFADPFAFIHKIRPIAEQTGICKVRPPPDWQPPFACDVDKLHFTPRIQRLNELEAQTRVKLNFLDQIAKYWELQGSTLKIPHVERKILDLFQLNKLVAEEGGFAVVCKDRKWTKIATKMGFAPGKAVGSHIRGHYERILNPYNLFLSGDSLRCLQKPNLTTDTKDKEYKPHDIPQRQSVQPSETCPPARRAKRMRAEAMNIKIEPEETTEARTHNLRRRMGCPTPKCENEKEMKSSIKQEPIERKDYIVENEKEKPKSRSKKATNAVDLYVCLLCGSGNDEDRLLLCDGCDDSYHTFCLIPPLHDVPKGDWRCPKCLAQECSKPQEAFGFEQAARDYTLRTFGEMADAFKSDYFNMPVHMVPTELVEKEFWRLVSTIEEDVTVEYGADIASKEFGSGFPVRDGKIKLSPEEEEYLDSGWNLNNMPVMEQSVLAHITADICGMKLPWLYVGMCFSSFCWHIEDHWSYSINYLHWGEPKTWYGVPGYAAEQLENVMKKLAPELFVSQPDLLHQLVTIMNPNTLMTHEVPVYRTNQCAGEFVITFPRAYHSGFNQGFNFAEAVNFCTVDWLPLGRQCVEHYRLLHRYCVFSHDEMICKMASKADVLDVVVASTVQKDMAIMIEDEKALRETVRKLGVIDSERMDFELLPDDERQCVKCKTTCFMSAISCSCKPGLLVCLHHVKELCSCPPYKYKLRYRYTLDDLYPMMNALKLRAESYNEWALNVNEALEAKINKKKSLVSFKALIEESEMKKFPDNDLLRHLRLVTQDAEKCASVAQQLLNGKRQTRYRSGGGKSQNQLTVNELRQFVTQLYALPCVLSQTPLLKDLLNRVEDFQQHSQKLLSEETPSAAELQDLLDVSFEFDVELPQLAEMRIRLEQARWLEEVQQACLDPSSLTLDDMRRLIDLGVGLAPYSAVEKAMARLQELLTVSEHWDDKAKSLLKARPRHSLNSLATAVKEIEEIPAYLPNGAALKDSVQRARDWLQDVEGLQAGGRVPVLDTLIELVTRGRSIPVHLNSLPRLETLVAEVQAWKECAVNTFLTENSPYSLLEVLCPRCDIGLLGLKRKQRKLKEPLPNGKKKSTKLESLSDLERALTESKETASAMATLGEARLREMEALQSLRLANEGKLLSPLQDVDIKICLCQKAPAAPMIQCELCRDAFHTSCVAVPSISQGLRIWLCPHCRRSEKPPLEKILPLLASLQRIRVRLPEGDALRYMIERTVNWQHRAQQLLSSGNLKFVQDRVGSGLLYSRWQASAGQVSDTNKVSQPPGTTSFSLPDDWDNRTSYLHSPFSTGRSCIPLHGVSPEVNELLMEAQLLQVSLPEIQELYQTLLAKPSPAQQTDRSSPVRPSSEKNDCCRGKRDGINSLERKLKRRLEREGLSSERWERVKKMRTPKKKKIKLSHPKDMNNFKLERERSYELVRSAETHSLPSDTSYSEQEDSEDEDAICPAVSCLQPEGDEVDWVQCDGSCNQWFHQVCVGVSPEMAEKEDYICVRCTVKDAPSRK
How it was run: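 KDM5BΔAP (200 nM final) in 50 mM HEPES pH 7.5, 0.01% Tween-20 was preincubated 10 min at RT with compound over a concentration range. Substrate mix (H3K4me3 12.5 µM, α-KG 25 µM, Fe²⁺, ascorbate, NAD⁺, FDH) was added, and NADH fluorescence change over 30 min gave dose-response curves.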
With `Cc1nn2c(c1-c1cccnc1N1CCOCC1)N(CC1CC1)CCC2` the Potency was active: 35.5 µM.
`Cc1cc(NC(=O)Cc2ccc(Cl)cc2Cl)n(CCC#N)n1` was tested, and the “activity change, negative = inhibition” value was inactive: 8.5%.
In the case of `Cc1ccc(CNC(=O)Cn2cccc2-c2nc(-c3ccccc3)no2)cc1`, the “activity change, negative = inhibition” value is reported as inactive: 12.1%.
For `CC(CNC(=O)CCCn1c(=O)c2cccn2c2cccnc21)c1ccccc1` (centres undefined), the Potency was inconclusive: 20 µM [inhibitor, partial curve, poor fit].
With `COCCOCC(=O)N1CCC(N2C(=O)C3(CCCCC3)C2c2ccccc2)CC1` (centres undefined) the “activity change, negative = inhibition” value was inactive: 13.1%.
`CCc1nc(Nc2cc(OC)ccc2OC)c2oc3ccccc3c2n1` was tested, and the Potency was inconclusive: 25.1 µM [inhibitor, partial curve, poor fit].
In the case of `O=C1Nc2ccccc2CCC1n1nc(-c2ccccc2)ccc1=O` (centres undefined), the “activity change, negative = inhibition” value is reported as inactive: 10.2%.
For `COc1ccc(CC2CCN(C(=O)c3c(C)noc3-c3ccc4c(c3)OCO4)CC2)cc1`, the Potency was active: 20 µM.
`CC(=O)Nc1ccc(CN2C[C@@H](F)[C@@H](OCc3nc4cc(C)c(C)cc4[nH]3)C2)cc1` was tested, and the Potency was inconclusive: 31.6 µM [inhibitor, single point].
`O=C(N/N=C(\CC(=O)c1cccs1)C(F)(F)F)c1ccncc1` was tested, and the Potency was inconclusive: 3.16 µM [inhibitor, full curve, poor fit].
For `CCOc1ccc(-c2cc3nc(C4CCN(C(=O)OC(C)(C)C)CC4)c(C(=O)Nc4ccc(C)cc4C)cn3n2)cc1`, the Potency was inconclusive: 28.2 µM [inhibitor, partial curve, poor fit].
In the case of `COc1ccccc1N1CCN(C(=O)c2cc3ccc4ccc(C)[nH]c4c3n2)CC1`, the Potency is reported as inconclusive: 35.5 µM [inhibitor, single point].
With `COCCOC(=O)N1CCC(Oc2cnc3c(ccn3-c3cncnc3)c2)CC1` the “activity change, negative = inhibition” value was inactive: -3.99% [at 86.2 µM].
For `FC(F)(F)c1ccc(CN2CCC3(CC(c4cccc(C(F)(F)F)c4)=NO3)C2)cc1` (centres undefined), the Potency was inconclusive: 35.5 µM [inhibitor, partial curve, poor fit].
`COc1cccc(C(=O)Nc2ccc(N3CCN(C(=O)c4ccccc4C)CC3)cc2)c1` was tested, and the “activity change, negative = inhibition” value was inactive: -6.52%.
In the case of `Cc1cccc(C(=O)NCC(=O)OCc2cc(=O)n3nc(C4CC4)sc3n2)c1`, the Potency is reported as inconclusive: 12.6 µM [inhibitor, partial curve, poor fit].
With `O=C(NCc1cccc(Cl)c1)c1cnc2c(c1)N(C(=O)Cc1ccc(O)cc1)CCC2` the Potency was inconclusive: 39.8 µM [inhibitor, partial curve, poor fit].
In the case of `Cc1ccc(Cn2c(CCCOc3ccc(Cl)cc3Cl)n[nH]c2=S)cc1`, the “activity change, negative = inhibition” value is reported as inactive: -17.9%.
For `Cc1cc(C)cc(NC(=O)CCc2c(C)nc3c4cccnc4nn3c2C)c1`, the Potency was inconclusive: 2.51 µM [inhibitor, full curve, poor fit].
`CCCCNC(=O)Cc1c(C)nc2nc(N)nn2c1C` was tested, and the Potency was inconclusive: 10 µM [inhibitor, partial curve, poor fit].
For `O=C(NCCc1ccccc1)c1cc(-c2ccncc2)nc2ccccc12`, the “activity change, negative = inhibition” value was inactive: 0.111%.
`N#Cc1cccc(C(=O)NC2CCN(c3cc(-c4ccc(F)cc4)[nH]n3)C2)c1` (centres undefined) was tested, and the Potency was inconclusive: 10 µM [inhibitor, partial curve].
With `Cc1ccc(C(C)NC(=O)Nc2ccc(N3CCOCC3)nc2)o1` (centres undefined) the Potency was inconclusive: 28.2 µM [inhibitor, partial curve, poor fit].
`CC(C)c1ccc(NC(=O)Cn2nc3ccc(S(=O)(=O)C4CCCCC4)nn3c2=O)cc1` was tested, and the “activity change, negative = inhibition” value was inactive: 12.9%.
For `Nc1cccc(C(=O)NCc2cccnc2)c1`, the Potency was inconclusive: 31.6 µM [inhibitor, single point].
In the case of `Cc1ccc(-n2ncc3c(N4CCN(C)CC4)ncnc32)cc1C`, the Potency is reported as inconclusive: 35.5 µM [inhibitor, single point].
With `CC1CC(=O)NN1C(=O)c1ccccc1` (centres undefined) the Potency was inconclusive: 28.2 µM [inhibitor, partial curve, poor fit].
For `COc1ccccc1NC(=O)c1sc2nc(C)c(C(=O)Nc3ccc(C)cc3C)c(-c3ccc(C)o3)c2c1N`, the Potency was inconclusive: 35.5 µM [inhibitor, single point].
With `O=C(O)CC1C(=O)NCCN1C1Cc2ccccc2C1` (centres undefined) the Potency was inconclusive: 25.1 µM [inhibitor, partial curve, poor fit].
In the case of `CC1=C(C#N)C(c2ccc(C(C)C)cc2)C(C#N)=C(C)N1`, the Potency is reported as inconclusive: 35.5 µM [inhibitor, single point].
With `CC(=O)N1CCN(c2nc3c(s2)CC(C(=O)Nc2cc(Cl)ccc2F)CC3)CC1` (centres undefined) the “activity change, negative = inhibition” value was inactive: -15.8%.
For `Cn1nc(-c2ccccc2)cc1C(=O)N1CCNCC(O)C1` (centres undefined), the “activity change, negative = inhibition” value was inactive: 32%.
With `O=C(NC1CCN(c2cc(-c3ccc(Cl)cc3)[nH]n2)C1)c1ccc(Br)o1` (centres undefined) the Potency was inconclusive: 7.94 µM [inhibitor, partial curve].
With `O=C(Nc1cnc(-c2ccc(Cl)cc2)nc1)c1ccccc1Cl` the Potency was inconclusive: 31.6 µM [inhibitor, partial curve].
With `COc1ccc(Nc2ncc(C(=O)Nc3cc(Cl)ccc3OC)c3ccccc23)cc1` the Potency was inconclusive: 28.2 µM [inhibitor, single point].
`N#Cc1cccc(CN2CCOC[C@H]2c2ncc(-c3ccc(Cl)s3)[nH]2)c1` was tested, and the “activity change, negative = inhibition” value was inactive: -30.5% [at 86.2 µM].
With `CCn1c(C)c(C)c2cc(C(=O)NCc3cccc(C)c3)ccc21` the Potency was inconclusive: 25.1 µM [inhibitor, partial curve, poor fit].
In the case of `COc1ccc(NC(=O)/C=C\C(=O)N(c2ccc(C(C)C)cc2)C(C(=O)NCc2ccco2)c2ccc(F)cc2)cc1` (centres undefined), the Potency is reported as inconclusive: 7.94 µM [inhibitor, partial curve, poor fit].
`O=C(c1ccccc1)N(Cc1ccco1)Cc1cccs1` was tested, and the “activity change, negative = inhibition” value was inactive: -28.1%.
`CCOc1cccc(NC(=O)/C(C#N)=C/c2cccnc2)c1` was tested, and the Potency was inconclusive: 20 µM [inhibitor, partial curve, poor fit].
For `CN1CCN(c2nc3ccccc3nc2C(=O)Nc2ccc(OC(F)(F)F)cc2)CC1`, the “activity change, negative = inhibition” value was inactive: -6.07%.
With `O=C(c1ccc(F)cc1)n1nc(-c2ccccc2)nc1NCc1ccco1` the Potency was inconclusive: 15.8 µM [inhibitor, single point].
In the case of `Cc1ccsc1C(=O)NC1CCCN(c2cc(-c3ccccc3)[nH]n2)C1` (centres undefined), the Potency is reported as inconclusive: 22.4 µM [inhibitor, partial curve, poor fit].
With `COC(=O)c1cnc2c(c1)n(CCCn1cnnn1)c(=O)n2C1CCCCC1` the Potency was inconclusive: 20 µM [inhibitor, single point].
`Oc1cccc(C=Nc2cccc3ccccc23)c1` was tested, and the Potency was inconclusive: 22.4 µM [inhibitor, partial curve, poor fit].
With `Cc1ccc(-n2nc3c(N4CCCC(C(=O)NCCN(C)C)C4)nnc(C)c3c2C)cc1` (centres undefined) the Potency was inconclusive: 25.1 µM [inhibitor, partial curve, poor fit].
For `Cc1cccc(N2CCN(c3nc4ccc(C)cc4n4cnnc34)CC2C)c1` (centres undefined), the Potency was inconclusive: 1.78 µM [inhibitor, full curve, poor fit].
In the case of `O=C(NCC(c1ccc2c(c1)OCO2)N1CCOCC1)c1c(F)cccc1F` (centres undefined), the activity change, negative = inhibition is reported as inconclusive: -30.5% [inhibitor].
`O=C(NCCc1nccc(-c2ccccc2)n1)C1NCCc2[nH]cnc21` (centres undefined) was tested, and the “activity change, negative = inhibition” value was inactive: -11.9%.
In the case of `CC(Oc1ccccc1)C(=O)N1CCC(Cc2nncn2C(C)C)CC1` (centres undefined), the “activity change, negative = inhibition” value is reported as inactive: -4.05%.
`O=C1NC(=NC2CCCCC2)C2(CCN(Cc3ccc(F)cc3)C2)N1c1cc(F)cc(F)c1` (centres undefined) was tested, and the “activity change, negative = inhibition” value was inactive: -3.31% [at 115 µM].
In the case of `O=C(Cc1ccccc1)Nc1ccnn1C1CCN(Cc2cccn2-c2ccccn2)CC1`, the Potency is reported as inconclusive: 17.8 µM [inhibitor, partial curve, poor fit].
With `Cc1ccccc1-c1noc(-c2ccc(NC(C)c3cnn(C)c3)nc2)n1` (centres undefined) the Potency was active: 28.2 µM.
In the case of `CCN1C(=O)CCN(Cc2cn(C)c3ccc(OC)cc23)CC12CCOCC2`, the Potency is reported as inconclusive: 20 µM [inhibitor, single point].
With `Nc1cc(N2CCN(Cc3ncc[nH]3)CC(C(=O)O)C2)ncn1` (centres undefined) the Potency was inconclusive: 25.1 µM [inhibitor, single point].
With `COc1cc(OC)cc(C(=O)Nc2ccc3oc(-c4cccc5c(Br)cccc45)nc3c2)c1` the Potency was inconclusive: 14.1 µM [inhibitor, partial curve, poor fit].
With `Nc1nc2c(s1)C(c1c(Cl)cccc1Cl)CC(=O)N2` (centres undefined) the Potency was inconclusive: 25.1 µM [inhibitor, partial curve, poor fit].
For `COc1ccc(-c2ccc3nnc(CNC(=O)Cc4cccc(OC)c4)n3n2)cc1`, the Potency was active: 25.1 µM.
With `Cc1ccccc1CN1CCc2nc(C(=O)Nc3ccccc3)oc2CC1` the Potency was active: 28.2 µM.
With `Cn1c(C(=O)N[C@@H](C(=O)O)c2ccccc2)cc2cc(F)ccc21` the Potency was inconclusive: 39.8 µM [inhibitor, single point].
`O=C(/C=C/c1ccc(-c2ccccc2Cl)o1)c1ccccc1Br` was tested, and the Potency was inconclusive: 20 µM [inhibitor, partial curve, poor fit].
With `COc1ccc(-c2cc(N3CCC(NC(=O)c4ccc(F)cc4F)C3)n[nH]2)cc1` (centres undefined) the Potency was inconclusive: 7.94 µM [inhibitor, partial curve].
`COc1ccc(Oc2c(C)oc3cc(OCC(=O)NC4CC4)ccc3c2=O)cc1` was tested, and the “activity change, negative = inhibition” value was inactive: 1.23%.
For `Cc1ccc(NC(=O)Cn2cnnc2C#N)cc1C`, the “activity change, negative = inhibition” value was inactive: -6.76%.
With `Cc1cc(=O)n(CC(=O)N2CCCCC2C)c(-c2ccccc2)n1` (centres undefined) the “activity change, negative = inhibition” value was inactive: 19.2%.
With `CC(C)(Oc1ccc(Cl)cc1)C(=O)Nc1nc2ccc(S(C)(=O)=O)cc2s1` the Potency was inconclusive: 22.4 µM [inhibitor, single point].
`CN(C)CCNc1ccccc1` was tested, and the “activity change, negative = inhibition” value was inactive: -23.7%.
For `O=C(Nc1nc(-c2ccccn2)cs1)C1CC(=O)N(c2ccccc2Cl)C1` (centres undefined), the “activity change, negative = inhibition” value was inactive: -3.27%.
`CC(CCc1ccccc1)NC(=O)c1ccc2nccn2c1` (centres undefined) was tested, and the Potency was active: 35.5 µM.
